T1: UNK ZnF1-6 (called full-length) (human, UniProt Q9C0B0 30-357)
T1 sequence: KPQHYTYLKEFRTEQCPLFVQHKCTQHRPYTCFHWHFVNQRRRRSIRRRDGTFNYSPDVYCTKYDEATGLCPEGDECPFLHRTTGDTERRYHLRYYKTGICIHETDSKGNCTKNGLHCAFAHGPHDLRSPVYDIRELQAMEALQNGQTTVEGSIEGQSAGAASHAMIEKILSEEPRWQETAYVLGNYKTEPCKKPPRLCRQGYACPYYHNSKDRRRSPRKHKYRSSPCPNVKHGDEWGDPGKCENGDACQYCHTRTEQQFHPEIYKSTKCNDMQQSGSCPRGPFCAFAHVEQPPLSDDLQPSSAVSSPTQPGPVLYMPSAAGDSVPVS

B1: ENSG00000134243:stop:overlap|stop_codon|ENSG00000134243|stop_codon|NA|stop_codon (ssRNA)
RNA: GGGAGUUCUACAGUCCGACGAUCCAGCCUCCCACACUAAUAAAAGUGGUUAUCAUGAUGACUCAGAUGAGGACCUCUUGGAAUAGCUCUUCAGAGGAGCUGGACCCAGCAUGGAUGGUGGAACCACAGUACCUCUUACACUCCCAACAGAGGAUUGAGCAUCA
B2: chr3:52708059:52708100:+|3pUTR|ENSG00000114902|msi1_unk|FALSE|overlapping (ssRNA)
RNA: GGGAGUUCUACAGUCCGACGAUCACACAAGUAUGAAGUUUCUUUCAGGUGUAAAUAAUGAAAAAUAAAUGCCUCAUAAAUGAUAGUACAAUGUAACUAUCAAAGUUUUAUAAUUCAUUAUGAGUUAACCAUUUUAAUGUUUCCCAACAGAGGAUUGAGCAUCA
B3: chr16:11691289:11692082:-|CDS|ENSG00000153066|control|control|control (ssRNA)
RNA: GGGAGUUCUACAGUCCGACGAUCCCAAGCUCCGUUCCUCACAUUGAGGAGAACAGGUAUCUCUUUCCAGAAGUGGACAUGACUAGCACAAACUUCACAGGCCUGAGCUGCAGAACCAACAAGACUCUCAACAUCUACCUUUUGCAACAGAGGAUUGAGCAUCA
B4: chr10:37831617:37833116:-|CDS|ENSG00000198105|control|control|control (ssRNA)
RNA: GGGAGUUCUACAGUCCGACGAUCCAUCAGAGGACUCACACAGGGGAGAAGCCGUAUGAGUGUAAUGCAUGUGGGAAGACCUUUAGUCAGAGGUCAGUGCUCACCAAACAUCAGAGAAUUCACACAAGGGUGAAAGCUCUUUCACAACAGAGGAUUGAGCAUCA
B5: chr16:2602459:2602560:+|3pUTR|ENSG00000140992|msi1|total|mutant (ssRNA)
RNA: GGGAGUUCUACAGUCCGACGAUCAACUAUGUACAGAGAACUUUUUACAAAAGGCAGACCUUUUUUAAGCUGUGUAACCCACACCGCCUAACCACCUGGCAGAAUGACUACGAACCGGGGUCAUUGUGCUGGUAAAAGCCUCUACAACAGAGGAUUGAGCAUCA
B6: chr16:70532473:70532607:+|CDS|ENSG00000189091|unk|FALSE|bound_elsewhere (ssRNA)
RNA: GGGAGUUCUACAGUCCGACGAUCCAAUGAUCCAACAGGGGAAGCAGCAGCUAAUACCCAGCAGACACUUACUUUCUAUGAGCUAGACCUUGGUUUAAAUCAUGUGGUCCGAAAAUACAGUGAACCUUUGGAGGAACACGGCAACAACAGAGGAUUGAGCAUCA

The other results are listed elsewhere or left out.

The target in the test is T1, UNK ZnF1-6 (called full-length). In words: nsRBNS (natural sequence RNA bind-n-seq); RBNS binding buffer (assumed for nsRBNS): 25 mM Tris pH 7.5, 150 mM KCl, 3 mM MgCl2, 0.01% Triton X-100, 500 ug/ml BSA, 20 U/ml SUPERase-In, 4 C; UNK is unkempt and MSI1 is Musashi-1; names of the RNAs are library labels; protein concentration not given here; high values mean tight binding.
B1 showed a binding signal of 0.871 enrichment R.
For B2 the value was 0.575 enrichment R; for B3, 0.724 enrichment R; for B4, 0.611 enrichment R.
B5 came in with a binding signal of 0.423 enrichment R.
With B6, the binding signal is 0.528 enrichment R.

(Values after paper PMC12136788.)
